The list shows a part of the results. Values were computed here from the reads of four pooled replicates and scatter widely.

This assay concerns the target T1, Pho4 (S. cerevisiae) (UniProt P07270).
T1 sequence: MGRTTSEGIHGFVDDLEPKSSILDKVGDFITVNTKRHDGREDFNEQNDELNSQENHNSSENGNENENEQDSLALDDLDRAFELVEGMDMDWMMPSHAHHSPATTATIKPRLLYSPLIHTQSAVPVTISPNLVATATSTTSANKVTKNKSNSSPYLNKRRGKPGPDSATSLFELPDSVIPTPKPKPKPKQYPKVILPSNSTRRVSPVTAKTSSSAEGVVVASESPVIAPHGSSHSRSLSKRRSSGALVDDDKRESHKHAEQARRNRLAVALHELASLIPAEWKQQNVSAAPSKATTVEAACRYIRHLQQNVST
The assay is described as follows: relative binding free energy (BET-seq); higher = weaker binding. Particulars: reference: library average.
As for CGTGCCACGTGTTTGG, the “relative binding free energy” value is -0.11 kcal/mol.
As for GTTCTCACGTGTTGAA, the figure is 0.4 kcal/mol; as for ATGGGCACGTGATCGT, -0.15 kcal/mol.
On to GCTAGCACGTGTGCGG, for which the “relative binding free energy” value was 0.1 kcal/mol.
Consider TATATCACGTGGGGGG, for which the “relative binding free energy” value was -0.02 kcal/mol.
As for GGATTCACGTGGCGGG, the figure is 0.18 kcal/mol; as for TATTTCACGTGTTTCG, 0.35 kcal/mol.
Next, TGGTGCACGTGATGTA: -0.04 kcal/mol.
Next, TTTGACACGTGGGCAT: -0.23 kcal/mol.
For AGTAGCACGTGAGAAT, the “relative binding free energy” value was 0.21 kcal/mol.
As for AGGGTCACGTGAGGGA, the “relative binding free energy” value is 0.27 kcal/mol.
As for TCAGACACGTGGAGTG, the figure is 0.01 kcal/mol; as for GTTGGCACGTGATATT, 0.04 kcal/mol; as for TGGAACACGTGTTGAT, 0.14 kcal/mol.
Take GTAATCACGTGGTTTG: the “relative binding free energy” value came out at 0.07 kcal/mol.
Next, GGACTCACGTGGGCGG: 0.09 kcal/mol; GGAGTCACGTGAGAGG: 0.43 kcal/mol.
Next, TTTGACACGTGTTTGC: 0.02 kcal/mol.
Next, GTAGCCACGTGTAGGG: -0.07 kcal/mol; CGCGACACGTGGGGGA: -0.01 kcal/mol.
Regarding ATAGTCACGTGGCTGA, the “relative binding free energy” value was found to be 0.03 kcal/mol.
Consider TTTGCCACGTGGTGCA, for which the “relative binding free energy” value is -0.08 kcal/mol.
As for GTTCTCACGTGGGGCT, the figure is 0.17 kcal/mol.
As for CGAGTCACGTGAAGTT, the figure is 0.4 kcal/mol; as for ATGATCACGTGGTACT, 0.04 kcal/mol.
Turning to TGGAACACGTGGTAGG, the “relative binding free energy” value is -0.03 kcal/mol.
Consider GGAGCCACGTGGGGGG, for which the “relative binding free energy” value was -0.19 kcal/mol.
As for AGGGGCACGTGAAATG, the figure is 0.04 kcal/mol.
For GGTTGCACGTGATAAT, the “relative binding free energy” value is 0.25 kcal/mol.
As to AAGTTCACGTGGGGGT, the “relative binding free energy” value stood at 0.14 kcal/mol.
For ACTTTCACGTGGTGTG, the “relative binding free energy” value is 0.05 kcal/mol.
Next, TTCTCCACGTGGTGGG: 0.04 kcal/mol; GTTGTCACGTGTGCGG: 0.14 kcal/mol; GTGATCACGTGATTTA: 0.36 kcal/mol.
As for GGTTCCACGTGGGTGG, the figure is 0.11 kcal/mol; as for AGCGTCACGTGAAGGG, 0.31 kcal/mol.
As for TTTTACACGTGTGGGC, the figure is 0.19 kcal/mol.
Consider TACGACACGTGGTTGG, for which the “relative binding free energy” value was -0.03 kcal/mol.
Turning to TGTCTCACGTGCTGGG, the “relative binding free energy” value is 0.2 kcal/mol.
As for GTTTACACGTGTGACG, the figure is 0.09 kcal/mol; as for TTGGTCACGTGGTTAG, 0.11 kcal/mol; as for TGGATCACGTGGTTCA, 0.01 kcal/mol.
As for CTTGACACGTGGGGCG, the figure is -0.14 kcal/mol; as for CTGCTCACGTGAGGTG, 0.33 kcal/mol.
In the case of GCGGGCACGTGGTTCT, the “relative binding free energy” value was -0.07 kcal/mol.
TGTCTCACGTGTCAGG: the “relative binding free energy” value came to 0.23 kcal/mol.
Next, TAGCGCACGTGTTGGG: -0.13 kcal/mol; ATGGGCACGTGGCCTG: -0.28 kcal/mol.
As for CTGCGCACGTGGTGTA, the figure is -0.31 kcal/mol; as for TTTGGCACGTGTCCAG, -0.02 kcal/mol.
Next, TATTTCACGTGGAAAA: 0.39 kcal/mol.
On to GTGTTCACGTGCGAAG, for which the “relative binding free energy” value is 0.29 kcal/mol.
Next, CGGTTCACGTGAGTTG: 0.43 kcal/mol; AGGACCACGTGTGGGG: -0.08 kcal/mol; GTTTGCACGTGAGCCG: 0.14 kcal/mol.
Next, AGGTACACGTGAGGGC: 0.28 kcal/mol.
Turning to TAGAACACGTGAGTGT, the “relative binding free energy” value was determined as 0.28 kcal/mol.
As for CTTCGCACGTGTTGGG, the figure is -0.17 kcal/mol; as for GCTTGCACGTGATGGC, 0.26 kcal/mol.
With GTTGTCACGTGGTAGT, the “relative binding free energy” value turned out to be 0.13 kcal/mol.
As for CTTAGCACGTGTTGGC, the figure is -0.04 kcal/mol; as for TTACACACGTGGGTTG, -0.26 kcal/mol.
Next, CTGATCACGTGGGAAG: 0.17 kcal/mol; TGTATCACGTGAACGG: 0.38 kcal/mol.
On to AGGGGCACGTGTATTT, for which the “relative binding free energy” value was -0.02 kcal/mol.
Next, CTTGGCACGTGGTTCT: -0.08 kcal/mol; TTAGTCACGTGGTGTA: 0.1 kcal/mol; AGCATCACGTGATGGA: 0.39 kcal/mol.
As for GGAGCCACGTGGGTAG, the figure is -0.28 kcal/mol; as for GGAGTCACGTGATGCA, 0.32 kcal/mol; as for GGGCTCACGTGATGGG, 0.4 kcal/mol.
Next, ACTGTCACGTGAGTGC: 0.25 kcal/mol.
GTGGGCACGTGCACTG: the “relative binding free energy” value is -0.16 kcal/mol.
Next, ATTGGCACGTGTTGCA: -0.04 kcal/mol.
Next, GTGATCACGTGTACGT: 0.07 kcal/mol; TTATTCACGTGGGAAC: 0.28 kcal/mol.
As for TTGTTCACGTGCGGAG, the figure is 0.26 kcal/mol; as for AACGACACGTGGGGTG, -0.22 kcal/mol; as for GAGATCACGTGTGGGC, 0.37 kcal/mol.
As for TTGGACACGTGCTGGC, the “relative binding free energy” value stood at 0.13 kcal/mol.
As for GTCTTCACGTGGAGTA, the figure is 0.38 kcal/mol.
Next, TCTCGCACGTGTTTTG: 0 kcal/mol; TTGAGCACGTGGCGTT: -0.12 kcal/mol.
As for TTAGGCACGTGATAGT, the figure is -0.1 kcal/mol.
On to CAGGGCACGTGTGTGA, for which the “relative binding free energy” value was -0.18 kcal/mol.
As for TTTAGCACGTGGCAGG, the figure is -0.12 kcal/mol.
Next, TTGGTCACGTGGTACG: 0 kcal/mol.
As for TTATTCACGTGTGGCA, the figure is 0.25 kcal/mol; as for GTTGCCACGTGATGAG, 0.17 kcal/mol.
TAGTTCACGTGAGTTC: the “relative binding free energy” value stood at 0.29 kcal/mol.
As for TGTTTCACGTGGGGTT, the figure is 0.15 kcal/mol.
On to TTTACCACGTGAATTT, for which the “relative binding free energy” value worked out at 0.42 kcal/mol.
Next, ATTTGCACGTGGGCCT: -0.06 kcal/mol; GGGCACACGTGGGAGG: -0.06 kcal/mol; GGGGGCACGTGGATGC: -0.03 kcal/mol.
For ATGTGCACGTGGGTGC, the “relative binding free energy” value is -0.08 kcal/mol.
As for TTATACACGTGGGATA, the figure is 0.05 kcal/mol; as for GTTGCCACGTGTGGTG, 0.06 kcal/mol; as for TATGTCACGTGTCGAG, -0.02 kcal/mol.
Next, TTTTACACGTGTACGG: 0.07 kcal/mol; TTGGTCACGTGAATTT: 0.31 kcal/mol.
Next, GTCGGCACGTGGATAT: -0.04 kcal/mol; TAAATCACGTGGTGCT: 0 kcal/mol.
With AGGGCCACGTGAGGGT, the “relative binding free energy” value was 0.05 kcal/mol.
As for CGATTCACGTGGGAGT, the figure is 0.2 kcal/mol; as for ATTTGCACGTGTCGGC, 0.09 kcal/mol; as for CTCGGCACGTGTGGGA, -0.07 kcal/mol.
As for AAGGGCACGTGGGCTA, the figure is -0.18 kcal/mol.
As for GAAATCACGTGGTTTT, the figure is 0.26 kcal/mol; as for GTGTCCACGTGGTCTG, -0.01 kcal/mol; as for AATTTCACGTGGTAGT, 0.14 kcal/mol.
Consider TTGAACACGTGTTTTT, for which the “relative binding free energy” value was found to be 0.08 kcal/mol.
Consider GGACTCACGTGGTAGT, for which the “relative binding free energy” value is 0.11 kcal/mol.
Next, TAATTCACGTGCAGGT: 0.28 kcal/mol.
Next, AGGGGCACGTGCGGAT: -0.24 kcal/mol.

Values taken from the BET-seq Pho4 binding data (Le et al. 2018).
